Measurements published in the supplement of paper PMC8728848.
The list shows a part of the results.

What was measured:
Experiment in all cases: glycan array binding signal (z-score within array); higher = stronger binding
Conditions in all cases: glycan notation: IUPAC condensed, linker removed
[1] = target: Fuc(a1-2)[Gal(a1-3)]Gal(b1-4)GlcNAc(b1-2)Man(a1-3)[Fuc(a1-2)[Gal(a1-3)]Gal(b1-4)GlcNAc(b1-2)Man(a1-6)]Man(b1-4)GlcNAc(b1-4)[Fuc(a1-6)]GlcNAc
Procedure, shortened: (§1)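 Glycan array data came from 3228 arrays in the Consortium for Functional Glycomics database, and only arrays with an available protein sequence were kept. Glycan names were put into IUPAC-condensed notation, and columns mapping to the same glycan were averaged. The binding signal is a within-array Z-score, averaged across arrays of one protein sequence run at different concentrations or buffers and across linkers. A negative Z-score can be read as non-binding.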

[2] = target: Fuc(a1-2)[Gal(a1-3)]Gal(b1-4)GlcNAc(b1-3)GalNAc
Procedure, shortened: as §1

[3] = target: Fuc(a1-2)[Gal(a1-3)]Gal(b1-4)GlcNAc(b1-3)[Fuc(a1-2)[Gal(a1-3)]Gal(b1-4)GlcNAc(b1-6)]GalNAc
Procedure, shortened: as §1

[4] = target: Fuc(a1-2)[Gal(a1-3)]Gal(b1-4)GlcNAc(b1-6)GalNAc
Procedure, shortened: as §1

[5] = target: Fuc(a1-2)[Gal(a1-3)]Gal(b1-4)[Fuc(a1-3)]Glc
Procedure, shortened: as §1

[6] = target: Fuc(a1-2)[Gal(a1-3)]Gal(b1-4)[Fuc(a1-3)]GlcNAc
Procedure, shortened: as §1

[7] = target: Fuc(a1-2)[Gal(a1-3)]Gal(b1-4)[Fuc(a1-3)]GlcNAc(b1-3)GalNAc
Procedure, shortened: as §1

[8] = target: Fuc(a1-2)[Gal(a1-4)]Gal(b1-4)GlcNAc
Procedure, shortened: as §1

[9] = target: Fuc(a1-2)[GalNAc(a1-3)]Gal
Procedure, shortened: as §1

[10] = target: Fuc(a1-2)[GalNAc(a1-3)]Gal(b1-3)GalNAc(a1-3)[Fuc(a1-2)]Gal(b1-4)GlcNAc
Procedure, shortened: as §1

[11] = target: Fuc(a1-2)[GalNAc(a1-3)]Gal(b1-3)GalNAc(b1-3)Gal(a1-4)Gal(b1-4)Glc
Procedure, shortened: as §1

[12] = target: Fuc(a1-2)[GalNAc(a1-3)]Gal(b1-3)GlcNAc
Procedure, shortened: as §1

[13] = target: Fuc(a1-2)[GalNAc(a1-3)]Gal(b1-3)GlcNAc(b1-2)Man(a1-3)[Fuc(a1-2)[GalNAc(a1-3)]Gal(b1-3)GlcNAc(b1-2)Man(a1-6)]Man(b1-4)GlcNAc(b1-4)GlcNAc
Procedure, shortened: as §1

[14] = target: Fuc(a1-2)[GalNAc(a1-3)]Gal(b1-3)GlcNAc(b1-2)Man(a1-3)[Fuc(a1-2)[GalNAc(a1-3)]Gal(b1-3)GlcNAc(b1-2)Man(a1-6)]Man(b1-4)GlcNAc(b1-4)[Fuc(a1-6)]GlcNAc
Procedure, shortened: as §1

[15] = target: Fuc(a1-2)[GalNAc(a1-3)]Gal(b1-3)GlcNAc(b1-3)GalNAc
Procedure, shortened: as §1

[16] = target: Fuc(a1-2)[GalNAc(a1-3)]Gal(b1-3)GlcNAc(b1-6)GalNAc
Procedure, shortened: as §1

[17] = target: Fuc(a1-2)[GalNAc(a1-3)]Gal(b1-4)Glc
Procedure, shortened: as §1

[18] = target: Fuc(a1-2)[GalNAc(a1-3)]Gal(b1-4)GlcNAc
Procedure, shortened: as §1

[19] = target: Fuc(a1-2)[GalNAc(a1-3)]Gal(b1-4)GlcNAc(b1-2)Man
Procedure, shortened: as §1

[20] = target: Fuc(a1-2)[GalNAc(a1-3)]Gal(b1-4)GlcNAc(b1-2)Man(a1-3)[Fuc(a1-2)[GalNAc(a1-3)]Gal(b1-4)GlcNAc(b1-2)Man(a1-6)]Man(b1-4)GlcNAc(b1-4)GlcNAc
Procedure, shortened: as §1

[21] = target: Fuc(a1-2)[GalNAc(a1-3)]Gal(b1-4)GlcNAc(b1-2)Man(a1-3)[Fuc(a1-2)[GalNAc(a1-3)]Gal(b1-4)GlcNAc(b1-2)Man(a1-6)]Man(b1-4)GlcNAc(b1-4)[Fuc(a1-6)]GlcNAc
Procedure, shortened: as §1

[22] = target: Fuc(a1-2)[GalNAc(a1-3)]Gal(b1-4)GlcNAc(b1-3)Gal(b1-4)GlcNAc
Procedure, shortened: as §1

[23] = target: Fuc(a1-2)[GalNAc(a1-3)]Gal(b1-4)GlcNAc(b1-3)Gal(b1-4)GlcNAc(b1-3)Gal(b1-4)GlcNAc
Procedure, shortened: as §1

[24] = target: Fuc(a1-2)[GalNAc(a1-3)]Gal(b1-4)GlcNAc(b1-3)GalNAc
Procedure, shortened: as §1

[25] = target: Fuc(a1-2)[GalNAc(a1-3)]Gal(b1-4)GlcNAc(b1-3)[Fuc(a1-2)[GalNAc(a1-3)]Gal(b1-4)GlcNAc(b1-6)]GalNAc
Procedure, shortened: as §1

[26] = target: Fuc(a1-2)[GalNAc(a1-3)]Gal(b1-4)GlcNAc(b1-6)GalNAc
Procedure, shortened: as §1

[27] = target: Fuc(a1-2)[GalNAc(a1-3)]Gal(b1-4)[Fuc(a1-3)]GlcNAc
Procedure, shortened: as §1

[28] = target: Fuc(a1-2)[GalNAc(a1-3)]Gal(b1-4)[Fuc(a1-3)]GlcNAc(b1-3)GalNAc
Procedure, shortened: as §1

[29] = target: Fuc(a1-2)[GalNAc(a1-4)]Gal(b1-4)GlcNAc
Procedure, shortened: as §1

[30] = target: Fuc(a1-2)[GalNAc(b1-3)]Gal
Procedure, shortened: as §1

Fuc(a1-3)GlcNAc = target: Fuc(a1-3)GlcNAc
Procedure, shortened: as §1

[31] = target: Fuc(a1-3)[Gal(b1-4)]Glc6S
Procedure, shortened: as §1

[32] = target: Fuc(a1-3)[Gal(b1-4)]GlcNAc
Procedure, shortened: as §1

[33] = target: Fuc(a1-3)[Gal(b1-4)]GlcNAc(b1-2)Man
Procedure, shortened: as §1

[34] = target: Fuc(a1-3)[Gal(b1-4)]GlcNAc(b1-2)Man(a1-3)[Fuc(a1-3)[Gal(b1-4)]GlcNAc(b1-2)Man(a1-6)]Man(b1-4)GlcNAc(b1-4)GlcNAc
Procedure, shortened: as §1

[35] = target: Fuc(a1-3)[Gal(b1-4)]GlcNAc(b1-2)Man(a1-3)[Fuc(a1-3)[Gal(b1-4)]GlcNAc(b1-2)Man(a1-6)]Man(b1-4)GlcNAc(b1-4)[Fuc(a1-6)]GlcNAc
Procedure, shortened: as §1

[36] = target: Fuc(a1-3)[Gal(b1-4)]GlcNAc(b1-3)Gal(b1-3)[Fuc(a1-4)]GlcNAc
Procedure, shortened: as §1

B1: PX14375C-bth-509-28-509 (Bacteroides thetaiotaomicron) (protein)
chain: RSPQGQFTEDDNPNALVNGKIYNVYTMMRSFDITAGTPAIAIHYLRSEDSEKGSIPSDGSDVAEMYDDFLYTPTNGLLGSYWGKNYAIIYQCNDILDAIAEKETAGQTETEDIINKGEASFFRAYCYFNLVRAFGEVPLVTYKINDASEANIPKTTADKIYEQIDTDLKTAEESLPETWSTEYTGRLTWGAARSLHARTYMMRSDWDNMYKASTDVINKGLYNLKTPYNEIFTDDGENSGGSIFELQCTATAALPQSDVIGSQFCEVQGVRGAGQWDLGWGWHMATQLMADAYETGDPRKNATLLYFRKTDDEPITPENTNEPYGESPISPAMGAYFNKKAYTDPALRKEYTNKGFWVNIRLIRYSDVVLMAAEAANEKNIPGEAVDYLEMVRARARGTNTNILPKITTNDQGELREAIRHERRVELGLEPDRFYDLVRWGIASEVLHAAGKVNYQDKNALLPLPQSEIDKSKGVLVQNPDY
glycan array binding signal (z-score) [1]: 0.281 | glycan array binding signal (z-score) [2]: -0.367 | glycan array binding signal (z-score) [3]: -0.383 | glycan array binding signal (z-score) [4]: -0.094 | glycan array binding signal (z-score) [5]: -0.317 | glycan array binding signal (z-score) [6]: -0.256 | glycan array binding signal (z-score) [7]: 0.431 | glycan array binding signal (z-score) [8]: -0.381 | glycan array binding signal (z-score) [9]: -0.271 | glycan array binding signal (z-score) [10]: -0.112 | glycan array binding signal (z-score) [11]: -0.355 | glycan array binding signal (z-score) [12]: -0.183 | glycan array binding signal (z-score) [13]: 0.437 | glycan array binding signal (z-score) [14]: -0.19 | glycan array binding signal (z-score) [15]: -0.068 | glycan array binding signal (z-score) [16]: 0.008 | glycan array binding signal (z-score) [17]: -0.445 | glycan array binding signal (z-score) [18]: -0.183 | glycan array binding signal (z-score) [19]: -0.161 | glycan array binding signal (z-score) [20]: 0.214 | glycan array binding signal (z-score) [21]: -0.354 | glycan array binding signal (z-score) [22]: -0.343 | glycan array binding signal (z-score) [23]: 0.081 | glycan array binding signal (z-score) [24]: -0.174 | glycan array binding signal (z-score) [25]: -0.229 | glycan array binding signal (z-score) [26]: 3.04 | glycan array binding signal (z-score) [27]: -0.276 | glycan array binding signal (z-score) [28]: 1.72 | glycan array binding signal (z-score) [29]: 0.801 | glycan array binding signal (z-score) [30]: -0.378 | glycan array binding signal (z-score) (Fuc(a1-3)GlcNAc): -0.139 | glycan array binding signal (z-score) [31]: -0.065 | glycan array binding signal (z-score) [32]: -0.155 | glycan array binding signal (z-score) [33]: -0.131 | glycan array binding signal (z-score) [34]: 1.05 | glycan array binding signal (z-score) [35]: 0.724 | glycan array binding signal (z-score) [36]: -0.158
